{"source": "patent US6794144", "about": "(LICENTIA, dated 2004)", "binders": {"B1": {"name": "Hck-SH3 displayed on M13 phage fused to the pIII coat protein (other)", "chain": "SEDIIVVALYDYEAIHHEDLSFQKGDQMVVLEESGEWWKARSLATRKEGYIPSNYVARVDS", "notes": "domain: SH3; also called recombinant phages expressing Hck-SH3"}}, "biological_target": "T1, plain GST (UniProt P08515 = GST)", "T1 construct": "Control coating protein", "T1 sequence (P08515 whole entry)": "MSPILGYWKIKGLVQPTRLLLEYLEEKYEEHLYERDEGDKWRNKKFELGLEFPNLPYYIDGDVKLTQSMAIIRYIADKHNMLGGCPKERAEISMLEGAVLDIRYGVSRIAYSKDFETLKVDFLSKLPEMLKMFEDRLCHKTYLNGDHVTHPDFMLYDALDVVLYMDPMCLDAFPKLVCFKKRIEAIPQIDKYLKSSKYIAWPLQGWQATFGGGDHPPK", "test": "phage capture on coated six-well plates (data not shown)", "data": [{"binder": "B1", "values": [{"measurement": "binding result", "result": "no binding"}]}]}
